# Assay results published in US20250270332A1.
# Biological target: FZD1/2/4/5/7/8
# Assay: cell-based or functional assay
% Wnt Maxima Avg [%],Maximal Signal (% Wnt3a maxima) (% Wnt3a maxima),Topflash EC50 (nM) Avg [nM],"EC50 (nM), TOPFLASH assay [nM]",Binder
33,33,0.9,–,CM0042 (Dia-Fc-Dia) (bispecific antibody) MNLLLILTFVAAAVAEFEVQLVESGGGLVQPGGSLRLSCAASGFNIGSSSIHWVRQAPGKGLEWVASIYSAFASTSYADSVKGRFTISADTSKNTAYLQMNSLRAEDTAVYYCARYHFPFGFALDYWGQGTLVTVSSGGGGSDIQMTQSPSSLSASVGDRVTITCRASQSVSSAVAWYQQKPGKAPKLLIYSASSLYSGVPSRFSGSRSGTDFTLTISSLQPEDFATYYCQQGVYLFTFGQGTKVEIKLEDKTHTKV[sequence of human IgG1 Fc with C220S (EU numbers) not given]SGSETPGTSESATPESGGGEVQLVESGGGLVQPGGSLRLSCAASGFNISYSSIHWVRQAPGKGLEWVAYISSYYGYTYYADSVKGRFTISADTSKNTAYLQMNSLRAEDTAVYYCARAHYFPWAGAMDYWGQGTLVTVSSGGGGSDIQMTQSPSSLSASVGDRVTITCRASQSVSSAVAWYQQKPGKAPKLLIYSASSLYSGVPSRFSGSRSGTDFTLTISSLQPEDFATYYCQQYSWGPFTFGQGTKVEIK
14,14,0.1,0.1,CM0299 (IgG-Dia) (bispecific antibody) heavy: EVQLVESGGGLVQPGGSLRLSCAASGFNIHSSSIHWVRQAPGKGLEWVAATYSSFGSITYADSVKGRFTISADTSKNTAYLQMNSLRAEDTAVYYCARYHHPFGYALDYWGQGTLVTVSS[sequence of human IgG1 constant region not given]SGSETPGTSESATPESGGGEVQLVESGGGLVQPGGSLRLSCAASGFNISYSSIHWVRQAPGKGLEWVAYISSYYGYTYYADSVKGRFTISADTSKNTAYLQMNSLRAEDTAVYYCARAHYFPWAGAMDYWGQGTLVTVSSGGGGSDIQMTQSPSSLSASVGDRVTITCRASQSVSSAVAWYQQKPGKAPKLLIYSASSLYSGVPSRFSGSRSGTDFTLTISSLQPEDFATYYCQQYSWGPFTFGQGTKVEIK light: DIQMTQSPSSLSASVGDRVTITCRASQSVSSAVAWYQQKPGKAPKLLIYSASSLYSGVPSRFSGSRSGTDFTLTISSLQPEDFATYYCQQGVYLFTFGQGTKVEIKRTVAAPSVFIFPPSDEQLKSGTASVVCLLNNFYPREAKVQWKVDNALQSGNSQESVTEQDSKDSTYSLSSTLTLSKADYEKHKVYACEVTHQGLSSPVTKSFNRGEC
5,5,0.3,0.3,CM0300 (IgG-scFv) (bispecific antibody) heavy: EVQLVESGGGLVQPGGSLRLSCAASGFNIHSSSIHWVRQAPGKGLEWVAATYSSFGSITYADSVKGRFTISADTSKNTAYLQMNSLRAEDTAVYYCARYHHPFGYALDYWGQGTLVTVSS[sequence of human IgG1 constant region not given]SGSETPGTSESATPESGGGDIQMTQSPSSLSASVGDRVTITCRASQSVSSAVAWYQQKPGKAPKLLIYSASSLYSGVPSRFSGSRSGTDFTLTISSLQPEDFATYYCQQYSWGPFTFGQGTKVEIKGTTAASGSSGGSSSGAEVQLVESGGGLVQPGGSLRLSCAASGFNISYSSIHWVRQAPGKGLEWVAYISSYYGYTYYADSVKGRFTISADTSKNTAYLQMNSLRAEDTAVYYCARAHYFPWAGAMDYWGQGTLVTVSS light: DIQMTQSPSSLSASVGDRVTITCRASQSVSSAVAWYQQKPGKAPKLLIYSASSLYSGVPSRFSGSRSGTDFTLTISSLQPEDFATYYCQQGVYLFTFGQGTKVEIKRTVAAPSVFIFPPSDEQLKSGTASVVCLLNNFYPREAKVQWKVDNALQSGNSQESVTEQDSKDSTYSLSSTLTLSKADYEKHKVYACEVTHQGLSSPVTKSFNRGEC
1,1,0.2,0.2,CM0301 (IgG-scFv) (bispecific antibody) heavy: EVQLVESGGGLVQPGGSLRLSCAASGFNIHSSSIHWVRQAPGKGLEWVAATYSSFGSITYADSVKGRFTISADTSKNTAYLQMNSLRAEDTAVYYCARYHHPFGYALDYWGQGTLVTVSS[sequence of human IgG1 constant region not given]SGSETPGTSESATPESGGGDIQMTQSPSSLSASVGDRVTITCRASQSVSSAVAWYQQKPGKAPKLLIYSASSLYSGVPSRFSGSRSGTDFTLTISSLQPEDFATYYCQQYYWPITFGQGTKVEIKGTTAASGSSGGSSSGAEVQLVESGGGLVQPGGSLRLSCAASGFNISSYYIHWVRQAPGKGLEWVASIYSSYGYTSYADSVKGRFTISADTSKNTAYLQMNSLRAEDTAVYYCARTVRGSKKPYFSGWAMDYWGQGTLVTVSS light: DIQMTQSPSSLSASVGDRVTITCRASQSVSSAVAWYQQKPGKAPKLLIYSASSLYSGVPSRFSGSRSGTDFTLTISSLQPEDFATYYCQQGVYLFTFGQGTKVEIKRTVAAPSVFIFPPSDEQLKSGTASVVCLLNNFYPREAKVQWKVDNALQSGNSQESVTEQDSKDSTYSLSSTLTLSKADYEKHKVYACEVTHQGLSSPVTKSFNRGEC
